# Laboratory results taken from PubChem BioAssay AID463173 (ICCB-Longwood Screening Facility, Harvard Medical School, 2010).
# In all, about 52,000 compounds went through this assay and about 1,700 (3.3%) were called active. No stated cut-off is given here; in the data, active means survival mostly below about 52% (no sharp cut-off); inactive means mostly above about 56%. Some of the results follow.
# Test system: Wild type
# Assay: growth inhibition of S. aureus wild type versus tarO mutant, primary screen, teichoic acid synthesis inhibitors, RN4220, OD600 (AID 463173)
# Details: S. aureus RN4220 wild type/DeltatarO growth, OD600, 18 h, hits give low values, screened at 18.75 µg/mL (by protocol)
row,SMILES,survival
1,Cc1ccc(S(=O)(=O)c2c(Nc3ccccc3)sc(C(=O)c3ccc4c(c3)OCO4)c2N)cc1,inactive: 84%
2,O=C(c1cccs1)N1CCCC(c2nc3c(nnn3Cc3ccc(F)cc3)c(=O)[nH]2)C1 (stereo not drawn),inactive: 119%
3,COc1ccc(OC)c(NC(=O)Cn2ccn(-c3ccc(F)cc3)c(=O)c2=O)c1,inactive: 84%
4,COc1ccc(-c2nc(SCC(=O)NCC3CCCO3)c(-c3ccc(Cl)cc3)[nH]2)cc1 (stereo not drawn),inactive: 83%
5,Cc1c(Cl)ccc2sc(NC(=O)c3ccc(S(=O)(=O)N4CCCC4)cc3)nc12,inactive: 78%
6,O=C(NCc1ccc2c(c1)CCN2C(=O)c1ccncc1)c1ccccc1Br,inactive: 75%
7,COc1ccc(C)cc1S(=O)(=O)Nc1cccc(-c2ccc(N3CCCC3)nn2)c1,inactive: 77%
8,CCN1C(=O)C(O)(C(C)C(=O)c2ccccc2)c2ccccc21 (stereo not drawn),inactive: 111%
9,Cc1ccc2ncc(C(=O)Nc3cccc(C(F)(F)F)c3)c(=O)n2c1,inactive: 122%
10,CC(C)c1ccc(NC(=O)c2cc3c(=O)oc4ccccc4c3s2)cc1,inactive: 87%
11,COc1ccccc1NC(=O)c1sc2cccc(Cl)c2c1Cl,inactive: 71%
12,CCOc1ccc(CCNC(=O)c2cc3c(=O)n(C)c4ccccc4c3s2)cc1OCC,inactive: 66%
13,CCc1ccc(OCC(=O)NCC(c2ccc(Cl)cc2)N2CCOCC2)cc1 (stereo not drawn),inactive: 106%
14,CCOC(=O)c1ccc2ncc(C(=O)OCC)c(NCCc3ccc(OC)c(OC)c3)c2c1,inactive: 64%
15,O=C(c1cccnc1)N1CCC(Cc2ccccc2)CC1,inactive: 115%
16,CCCC12CN3CC(C)(CN(C1)C3c1ccc(CC)cc1)C2=O (stereo not drawn),inactive: 96%
17,Cc1cccc(N2CCN(C(c3ccc(F)cc3)c3nnc(-c4ccccc4)o3)CC2)c1C (stereo not drawn),inactive: 28%
18,COc1cccc(N2CCN(C(=O)c3cnc4c(C)cccn4c3=O)CC2)c1,inactive: 91%
19,O=C(CC(c1cccs1)N1Cc2ccccc2C1=O)Nc1ccccc1 (stereo not drawn),inactive: 82%
20,CCN1CCN(C(=O)Cn2ncc3c4ccccc4n(Cc4ccccc4F)c3c2=O)CC1,inactive: 82%

row,SMILES,survival
1,O=c1cc2nc(-c3ccccc3)nc(SCc3cccc(Br)c3)n2[nH]1,inactive: 73%
2,Cc1cccc(NC(=O)CSc2nc3ccccc3c3nc(CCn4cncc4C)nn23)c1,inactive: 83%
3,COc1ccc(N2CCN(C(CNC(=O)C(=O)NCc3ccc(C)cc3)c3cccnc3)CC2)cc1 (stereo not drawn),inactive: 83%
4,CC(C)Oc1ccc(CNC(=O)C2CCN(C(=O)N3CCOc4ccc(Cl)cc43)CC2)cc1,inactive: 79%
5,CCC(c1nnnn1C(C)(C)CC)N(Cc1cc2ccc(C)cc2[nH]c1=O)C1CCCC1 (stereo not drawn),inactive: 105%
6,Cc1ccccc1-c1nc(NC(=O)CSc2ncnc3sc4c(c23)CCCC4)ns1,inactive: 88%
7,CCNC(=O)c1c(NC(=O)c2cc(=O)c3ccc(C)c(C)c3o2)sc2c1CCCC2,inactive: 85%
8,Cc1cccc(N2CCN(S(=O)(=O)c3ccc(F)c(C(=O)Nc4cccc(Cl)c4C)c3)CC2C)c1 (stereo not drawn),inactive: 100%
9,CCCC1C2CN(C(C)C)CC=C2C(C#N)=C(N)C1(C#N)C#N (stereo not drawn),inactive: 107%
10,Cc1ccc(Cl)cc1N1CCN(C(=O)C(C)n2ncn3cccc3c2=O)CC1 (stereo not drawn),inactive: 83%
11,CCCCN(CCCC)C(=O)c1cc2c(=O)n3ccccc3nc2s1,inactive: 61%
12,CC1CCCCN1S(=O)(=O)c1ccc(NC(=O)C2COc3ccccc3O2)cc1 (stereo not drawn),inactive: 125%
13,O=C(NC1CC2CCC(C1)N2C(=O)NC1CCCCC1)NC12CC3CC(CC(C3)C1)C2 (stereo not drawn),inactive: 113%
14,Cc1nn(-c2ccccc2)c2c1cc1c(=O)[nH]c(=O)nc-1n2-c1cccc(C(F)(F)F)c1,inactive: 116%
15,COc1ccc(Nc2ncnc3c2cnn3C)c(OC)c1,inactive: 82%
16,O=C(NCCSc1c(-c2ccc(Cl)cc2)[nH]c2ccccc12)c1ccc(S(=O)(=O)N2CCOCC2)cc1,inactive: 89%
17,O=S(=O)(Nc1ccc(-c2ccc(N3CCCCCC3)nn2)cc1)c1ccc(C(F)(F)F)cc1,inactive: 73%
18,O=C(CN1CCN(Cc2ccc(F)cc2)C1=O)NCc1ccccc1,inactive: 88%
19,Cc1ccccc1SCC(=O)O,inactive: 106%
20,Cc1ccc2c(c1)-c1onc(C(=O)N3CCN(c4cccc(C)c4C)CC3)c1CO2,inactive: 87%

row,SMILES,survival
1,Cc1cc(C)c(S(=O)(=O)NCC(c2ccco2)N2CCN(c3ccccc3)CC2)c(C)c1 (stereo not drawn),inactive: 85%
2,Cc1ccc(-n2nc3c(=O)n(CCCC(=O)NCc4ccc(F)cc4)nc(C)c3c2C)cc1,inactive: 77%
3,COC(=O)c1c(NC(=O)c2c(OC)cccc2OC)sc2c1CCCC2,active: 3%
4,CC1CCCCN1S(=O)(=O)c1ccc2[nH]c(=O)cc(C(=O)NCCc3ccc(Cl)cc3)c2c1 (stereo not drawn),inactive: 63%
5,CC(C)Cc1cc(C(=O)O)nc(=O)[nH]1,inactive: 109%
6,O=C(Nc1ccccn1)c1ccccc1O,inactive: 110%
7,COc1cccc(NC(=O)c2oc3ccc(S(=O)(=O)N4CCOCC4)cc3c2C)c1,inactive: 74%
8,CC(C)OCCCNC(=O)CN1C(=O)CSc2ccc(S(=O)(=O)N3CCOCC3)cc21,inactive: 71%
9,C=Cc1ccc(Cn2c(C(=O)OC)cc3sc(C)cc32)cc1,active: 0%
10,CCc1ccccc1N1C(=O)CC(N2CCc3ccccc32)C1=O (stereo not drawn),inactive: 101%
11,COc1cc(SC)ccc1C(=O)N1CCCC(C)C1 (stereo not drawn),inactive: 88%
12,CC(=O)c1cccc(Nc2ncnc3c2cnn3-c2cccc(Cl)c2)c1,inactive: 81%
13,COc1cccc(NC(=O)CC2Oc3ccccc3NC2=O)c1 (stereo not drawn),inactive: 77%
14,CC(=O)Nc1c(C(=O)Nc2ccccc2F)oc2ccccc12,inactive: 128%
15,COC(=O)C1(C)NC(c2ccccc2C)C2C(=O)N(C)C(=O)C21 (stereo not drawn),inactive: 98%
16,CCc1ccc(Nc2nc3c(S(=O)(=O)c4cccc(Cl)c4)nnn3c3ccsc23)cc1,inactive: 96%
17,CNc1nc(Oc2ccc(=O)[nH]n2)nc(N2CCOCC2)n1,inactive: 72%
18,COc1ccc(-n2cc(C(=O)Nc3ccccc3C#N)c3ccccc3c2=O)cc1,inactive: 109%
